Sequences with one replicate were seen in a single cluster, so their values are uncertain.
The sequences below were run on ATP (assay: switch fluorescence ratio, 500 uM ATP over buffer (Cy3 cluster intensity, sum of 5 cycles each) (fold (ratio)); higher = stronger signal-on switching upon ATP binding; sequences stand for … in TCGTCGGCAGCGTCAGATGTGTATAAGAGACAGTTTTTTTTTTTTTTTTTTTTTTTTT…TC). Settings: aptamer strand: ATP DNA aptamer (quencher-CACCTGGGGGAGTATTGCGGAGGAAGG + anchor), 100 nM annealed; ATP concentration: 500 uM; one replicate.
Method in brief: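 Imaging in selection buffer was followed by imaging after 15 min with 500 uM ATP at 22 °C, for Cy3-labelled switching-strand clusters annealed to 100 nM quencher-labelled ATP aptamer on a modified Illumina MiSeq flow-cell. Five of these buffer/ATP cycles ran, separated by NaOH stripping and re-annealing. The fluorescence ratio per cluster is summed target-cycle over summed buffer-cycle Cy3 intensity, averaged per switch-domain sequence; clusters outside 100-1000 RFU were removed.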
CTGGGTAGAA showed a switch fluorescence ratio of 1.03.
CTGGGTAGGA was tested, and the switch fluorescence ratio was 0.988.
Work on CTGGTAGGAG yielded a switch fluorescence ratio of 1.05.
CTGGTATAT was tested, and the switch fluorescence ratio was 1.01.
In the case of CTGGTATGCA, the switch fluorescence ratio is reported as 1.01.
In the case of CTGGTATTCG, the switch fluorescence ratio is reported as 0.94.
CTGGTCAGC showed a switch fluorescence ratio of 0.969.
CTGGTCGCCT was tested, and the switch fluorescence ratio was 0.975.
With CTGGTCTAAA the switch fluorescence ratio was 1.01.
Sequence CTGGTGTCGC has a switch fluorescence ratio of 0.968.
Sequence CTGGTTAAAG has a switch fluorescence ratio of 1.01.
CTGGTTAGCG showed a switch fluorescence ratio of 0.969.
For CTGGTTAGG, the switch fluorescence ratio was 0.971.
Sequence CTGGTTGAGG has a switch fluorescence ratio of 1.02.
CTGGTTTGGC showed a switch fluorescence ratio of 0.977.
Sequence CTGTAACAGT has a switch fluorescence ratio of 1.03.
Work on CTGTAATGCT yielded a switch fluorescence ratio of 1.96.
In the case of CTGTAATGTA, the switch fluorescence ratio is reported as 1.09.
In the case of CTGTACACTG, the switch fluorescence ratio is reported as 1.05.
CTGTAGATAA gave a switch fluorescence ratio of 1.04.
Work on CTGTATAGG yielded a switch fluorescence ratio of 0.992.
CTGTCACAGA was tested, and the switch fluorescence ratio was 1.01.
With CTGTCGGATG the switch fluorescence ratio was 0.981.
In the case of CTGTCTCACA, the switch fluorescence ratio is reported as 1.02.
For CTGTGACGAC, the switch fluorescence ratio was 1.03.
With CTGTGATTG the switch fluorescence ratio was 0.984.
In the case of CTGTGCGGCG, the switch fluorescence ratio is reported as 1.01.
Sequence CTGTGCGGTC has a switch fluorescence ratio of 1.06.
CTGTGGGTGT showed a switch fluorescence ratio of 1.01.
Sequence CTGTGTAAGT has a switch fluorescence ratio of 0.984.
Sequence CTGTGTGGGT has a switch fluorescence ratio of 0.985.
CTGTTAACGG showed a switch fluorescence ratio of 0.961.
For CTGTTAATGA, the switch fluorescence ratio was 1.
For CTGTTAGCTC, the switch fluorescence ratio was 1.12.
In the case of CTGTTCAGCG, the switch fluorescence ratio is reported as 1.03.
CTGTTCGATG gave a switch fluorescence ratio of 0.951.
In the case of CTGTTGCGCG, the switch fluorescence ratio is reported as 1.04.
Sequence CTGTTGCTTC has a switch fluorescence ratio of 0.993.
For CTGTTGGCTG, the switch fluorescence ratio was 0.938.
Work on CTGTTGTCGC yielded a switch fluorescence ratio of 1.02.
Sequence CTGTTTAGGC has a switch fluorescence ratio of 0.98.
With CTGTTTCTCC the switch fluorescence ratio was 1.05.
CTGTTTGGTT gave a switch fluorescence ratio of 1.01.
CTTAACCTTG showed a switch fluorescence ratio of 1.01.
In the case of CTTAAGGTAA, the switch fluorescence ratio is reported as 1.01.
CTTAATAAAT was tested, and the switch fluorescence ratio was 1.
CTTAATACGG was tested, and the switch fluorescence ratio was 1.03.
CTTAATAGGG gave a switch fluorescence ratio of 0.991.
Work on CTTAATATCA yielded a switch fluorescence ratio of 1.03.
In the case of CTTAATCTTT, the switch fluorescence ratio is reported as 0.998.
CTTAATGATA was tested, and the switch fluorescence ratio was 0.973.
Work on CTTAATTCGC yielded a switch fluorescence ratio of 1.11.
CTTACACAAC gave a switch fluorescence ratio of 1.17.
Sequence CTTACATTAG has a switch fluorescence ratio of 1.03.
Work on CTTACCGCTA yielded a switch fluorescence ratio of 1.69.
Work on CTTACCGGCG yielded a switch fluorescence ratio of 0.94.
Sequence CTTACCTCAT has a switch fluorescence ratio of 1.07.
CTTACGAGGG gave a switch fluorescence ratio of 0.976.
Sequence CTTACGCAGA has a switch fluorescence ratio of 1.03.
Sequence CTTACGCGAT has a switch fluorescence ratio of 1.21.
With CTTACGTACT the switch fluorescence ratio was 1.63.
CTTAGAGCTA gave a switch fluorescence ratio of 0.992.
In the case of CTTAGAGGGG, the switch fluorescence ratio is reported as 0.996.
Sequence CTTAGAGTTT has a switch fluorescence ratio of 1.01.
In the case of CTTAGATAG, the switch fluorescence ratio is reported as 0.999.
CTTAGCCCGG gave a switch fluorescence ratio of 1.01.
Sequence CTTAGGAAGA has a switch fluorescence ratio of 0.977.
Sequence CTTAGGGGTT has a switch fluorescence ratio of 0.992.
In the case of CTTAGGTGTG, the switch fluorescence ratio is reported as 1.05.
CTTAGGTTAT gave a switch fluorescence ratio of 1.02.
CTTAGTCTTA was tested, and the switch fluorescence ratio was 0.983.
Work on CTTAGTGTTT yielded a switch fluorescence ratio of 1.03.
Sequence CTTAGTTACT has a switch fluorescence ratio of 1.02.
For CTTATAGGCG, the switch fluorescence ratio was 0.991.
CTTATAGTAT showed a switch fluorescence ratio of 0.971.
CTTATATTAT gave a switch fluorescence ratio of 0.998.
CTTATATTCA gave a switch fluorescence ratio of 0.929.

Source: the supplement of paper PMC10126150
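Note: ATP exposure 15 min at 22 °C before imaging.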
